Data: the BET-seq Pho4 binding data (Le et al. 2018)
The other results are listed elsewhere or left out. These are noisy estimates, calculated here from bound and input reads.

biological target: T1, Pho4 (S. cerevisiae) (UniProt P07270); assay: relative binding free energy (BET-seq); higher = weaker binding; details: reference: library average
T1 sequence: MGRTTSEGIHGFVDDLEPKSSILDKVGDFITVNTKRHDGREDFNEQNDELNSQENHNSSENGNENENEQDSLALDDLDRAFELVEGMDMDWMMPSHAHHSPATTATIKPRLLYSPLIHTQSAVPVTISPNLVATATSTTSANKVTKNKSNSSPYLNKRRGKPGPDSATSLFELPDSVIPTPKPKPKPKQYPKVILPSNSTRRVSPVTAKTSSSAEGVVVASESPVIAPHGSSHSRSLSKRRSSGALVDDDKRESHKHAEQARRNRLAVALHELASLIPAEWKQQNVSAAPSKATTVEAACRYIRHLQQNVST

| Sequence | relative binding free energy [kcal/mol] |
| --- | --- |
| GTGGCCACGTGTGGAA | -0.07 |
| AAACGCACGTGTTAGT | 0.17 |
| CGGGGCACGTGAGGGA | 0.1 |
| TTTCGCACGTGGAGGT | 0.03 |
| TTCTTCACGTGTAATG | 0.19 |
| TCGTTCACGTGTATAG | 0.33 |
| AGTTGCACGTGTATCG | -0.01 |
| GGTTGCACGTGGACAG | 0.09 |
| TTTTTCACGTGGGTAG | 0.28 |
| GGCTACACGTGGTTAT | 0.07 |
| GTAGTCACGTGGTAAG | 0.15 |
| GGCGGCACGTGGTTAT | -0.12 |
| TGTAGCACGTGGAGGG | -0.08 |
| AGTTGCACGTGAGATT | 0.18 |
| CTAATCACGTGGGCGT | 0.18 |
| CGGGTCACGTGGTCGA | -0.07 |
| CAGCGCACGTGGTGTA | -0.17 |
| AGGACCACGTGTTTTG | 0.05 |
| CGGCTCACGTGTTAGG | 0.31 |
| TCCTGCACGTGGGCGT | -0.05 |
| GTGAACACGTGGTGGA | -0.06 |

| Sequence | relative binding free energy [kcal/mol] |
| --- | --- |
| GGGAACACGTGACGGG | 0.15 |
| AATGGCACGTGTTTTC | -0.13 |
| TTAGGCACGTGGCTTA | -0.25 |
| ATGTTCACGTGTCTTG | 0.19 |
| ATAATCACGTGAATGT | 0.22 |
| TACGACACGTGGAGGT | -0.1 |
| GGGTTCACGTGTTTGC | 0.16 |
| ATAGTCACGTGTGCCT | 0.2 |
| TTGTTCACGTGGGAAG | 0.19 |
| AATATCACGTGGGGGG | 0 |
| AGTTTCACGTGGGAAA | 0.06 |
| ATGCGCACGTGGGGAC | -0.2 |
| TAATTCACGTGTACTT | 0.13 |
| GGGGGCACGTGGCTTG | -0.14 |
| AGGGTCACGTGGAGTG | 0.11 |
| GTGATCACGTGGTGGA | 0.02 |
| GTGAGCACGTGGCGTG | -0.25 |
| GTCGGCACGTGTGATT | 0.15 |
| TATGTCACGTGCGGGG | -0.11 |
| GTTTGCACGTGGGATA | -0.16 |
| TGTTGCACGTGTCAGC | 0.01 |

| Sequence | relative binding free energy [kcal/mol] |
| --- | --- |
| TAGGTCACGTGAGCGG | 0.19 |
| GGGAGCACGTGAGGGG | 0.16 |
| GTAGTCACGTGATGCG | 0.33 |
| CAAGTCACGTGCGTGG | 0.01 |
| TCGGGCACGTGGGCGT | -0.18 |
| TGGTCCACGTGGCGTT | -0.14 |
| TTTAGCACGTGTTCGT | -0.01 |
| AAAATCACGTGGGGGG | 0.06 |
| TTTCGCACGTGCGTGG | -0.15 |
| GTTTGCACGTGATATA | 0.03 |
| ATTTTCACGTGTGTCT | 0.22 |
| GGGGTCACGTGGGTAC | 0.06 |
| CAGGCCACGTGGTCGG | -0.08 |
| AATAGCACGTGAGTGT | 0.21 |
| CATTACACGTGGTATG | 0.11 |
| TGTGTCACGTGTAAAT | 0.22 |
| TCGGGCACGTGGGGTC | -0.15 |
| TTCTTCACGTGGCGGA | 0.35 |
| TCGAGCACGTGTGTGT | -0.04 |
| TTGCACACGTGTATGT | -0.05 |
| TGCAACACGTGAAGGG | 0.34 |
